In the supplement of paper PMC7826260:
The list shows a part of the results. Cleavage of a single-stranded DNA pool by Rep nickase domains was read by sequencing (3 µM enzyme, 1 h, 37 °C); shown is the middle of each 90-letter strand. The score is log2 (uncut reads / reads without enzyme); the lower, the more was cut; hits are not called. Reads are scaled to the total; values above 0 arise when much of the pool is cut.

Key:
Test in all cases: uncleaved DNA left, log2 of reads against the no-enzyme library (log2 ratio); higher = less cleavage (more negative = more Rep cleavage of the k-mer); sequences stand for … in CTCGTCCG…ACCGGAGA
[1] = tested on: T1, Rep nickase domain of Muscovy duck circovirus
T1 sequence (residues 1-111 of Rep, tag left off): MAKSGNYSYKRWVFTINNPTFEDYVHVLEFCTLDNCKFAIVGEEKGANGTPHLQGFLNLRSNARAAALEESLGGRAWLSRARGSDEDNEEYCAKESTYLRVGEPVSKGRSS
Method: (§1)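 A pool of 90-nt single-stranded DNAs with seven random bases just before the constant AC of the nick site (name = the seven bases) was cut by 3 µM recombinant His6-SUMO-tagged Rep nickase domain (300 nM DNA, 50 mM HEPES pH 8.0, 50 mM NaCl, 1 mM MnCl2, 1 h, 37 °C, three replicates). Uncut DNA was amplified and sequenced.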

[2] = tested on: T2, Rep nickase domain of banana bunchy top virus
T2 sequence (residues 1-94 of Rep, tag left off): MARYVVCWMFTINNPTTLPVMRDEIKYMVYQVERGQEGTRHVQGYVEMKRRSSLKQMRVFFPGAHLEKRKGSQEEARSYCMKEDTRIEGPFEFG
Method: as §1

[3] = tested on: T3, Rep nickase domain of cabbage leaf curl virus
T3 sequence (residues 1-116 of Rep, tag left off): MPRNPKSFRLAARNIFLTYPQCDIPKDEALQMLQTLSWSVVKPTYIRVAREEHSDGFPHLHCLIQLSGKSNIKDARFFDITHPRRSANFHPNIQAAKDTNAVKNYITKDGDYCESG
Method: as §1

[4] = tested on: T4, Rep nickase domain of chickpea chlorotic dwarf virus
T4 sequence (residues 1-124 of Rep, tag left off): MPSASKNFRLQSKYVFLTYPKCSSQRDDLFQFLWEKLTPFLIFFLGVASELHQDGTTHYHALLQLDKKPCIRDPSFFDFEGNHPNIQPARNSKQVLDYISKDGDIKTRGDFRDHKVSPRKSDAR
Method: as §1

[5] = tested on: T5, Rep nickase domain of faba bean necrotic yellows virus
T5 sequence (residues 1-98 of Rep, tag left off): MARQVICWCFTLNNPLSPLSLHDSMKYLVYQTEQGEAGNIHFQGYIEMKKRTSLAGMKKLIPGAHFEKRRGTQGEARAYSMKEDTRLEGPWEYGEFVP
Method: as §1

[6] = tested on: T6, Rep nickase domain of maize striate mosaic virus
T6 sequence (residues 1-117 of Rep, tag left off): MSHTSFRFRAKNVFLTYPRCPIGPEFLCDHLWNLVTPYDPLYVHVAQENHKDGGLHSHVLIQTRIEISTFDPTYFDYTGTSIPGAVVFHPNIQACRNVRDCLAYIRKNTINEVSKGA
Method: as §1

[7] = tested on: T7, Rep nickase domain of porcine circovirus 2
T7 sequence (residues 2-116 of Rep, tag left off): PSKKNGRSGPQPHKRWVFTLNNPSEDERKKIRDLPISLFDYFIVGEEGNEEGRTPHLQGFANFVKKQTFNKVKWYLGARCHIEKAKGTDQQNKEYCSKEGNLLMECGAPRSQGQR
Method: as §1

[8] = tested on: T8, Rep nickase domain of tomato yellow leaf curl virus
T8 sequence (residues 1-136 of Rep, tag left off): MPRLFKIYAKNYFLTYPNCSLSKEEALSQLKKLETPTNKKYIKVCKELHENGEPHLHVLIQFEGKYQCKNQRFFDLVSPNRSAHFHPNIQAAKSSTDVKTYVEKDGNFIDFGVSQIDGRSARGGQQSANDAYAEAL
Method: as §1

[9] = tested on: T9, Rep nickase domain of wheat dwarf virus
T9 sequence (residues 1-137 of Rep, tag left off): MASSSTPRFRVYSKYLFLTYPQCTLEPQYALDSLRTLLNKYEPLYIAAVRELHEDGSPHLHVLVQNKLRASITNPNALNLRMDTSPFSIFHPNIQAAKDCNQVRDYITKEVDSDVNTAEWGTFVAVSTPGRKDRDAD
Method: as §1

Row | Sequence | uncleaved DNA left (log2) [1] | uncleaved DNA left (log2) [2] | uncleaved DNA left (log2) [3] | uncleaved DNA left (log2) [4] | uncleaved DNA left (log2) [5] | uncleaved DNA left (log2) [6] | uncleaved DNA left (log2) [7] | uncleaved DNA left (log2) [8] | uncleaved DNA left (log2) [9]
1 | CCGGTCT | -0.117 | -0.256 | 0.206 | -0.391 | -0.118 | 0.834 | -0.0566 | -0.172 | -0.197
2 | GGGGCGT | 0.113 | 0.196 | 0.93 | 2.04 | 0.0897 | 2.29 | 0.293 | 0.056 | 0.226
3 | AGAGTAC | 0.164 | 0.0678 | 0.213 | -0.129 | 0.0578 | 0.0979 | 0.0673 | 0.0572 | 0.164
4 | ACTTAGC | -0.0727 | 0.00695 | -0.666 | -0.593 | 0.0478 | -1.33 | -0.0148 | -0.0572 | -0.0684
5 | CCCTAAT | -2.14 | -0.166 | -0.275 | -1.08 | -0.138 | -0.7 | -3.2 | -0.127 | -0.146
6 | GTGCAAT | 0.00928 | 0.174 | 0.299 | 1.03 | -0.0999 | 1.78 | 0.0821 | 0.0986 | 0.0353
7 | AAACCGA | 0.0387 | 0.0243 | -0.282 | -0.879 | 0.185 | -0.846 | 0.083 | 0.104 | -0.0375
8 | AGAAGAG | 0.0444 | 0.172 | -0.466 | -0.312 | 0.0118 | -0.846 | 0.276 | 0.0412 | 0.05
9 | CGCTTAT | 0.00982 | 0.0801 | 0.31 | -0.381 | 0.309 | -0.11 | -0.982 | 0.11 | 0.305
10 | TCCCCGG | -0.12 | -0.107 | 0.527 | 1.69 | -0.0853 | 2.02 | 0.00299 | -0.11 | -0.0114
11 | GTTATCT | 0.102 | 0.141 | 0.384 | 0.828 | -0.0479 | 1.77 | 0.11 | 0.212 | 0.136
12 | ATCGCCA | -0.0247 | -0.111 | -0.0559 | -0.584 | 0.0888 | -0.404 | 0.0344 | 0.0505 | 0.0776
13 | TCAATTT | -0.0985 | -0.0978 | -0.27 | -2.67 | -0.0227 | -0.682 | -0.362 | -0.0852 | -0.0759
14 | CTCTGGA | -0.0423 | -0.184 | -0.0463 | -0.025 | -0.198 | -0.624 | -0.0375 | -0.198 | -0.0665
15 | TGCATCC | 0.0325 | 0.0647 | 0.131 | 0.278 | -0.144 | -0.152 | 0.0494 | -0.0171 | 0.00252
16 | TGCCGGG | 0.13 | 0.0287 | 0.401 | 0.539 | 0.095 | 0.522 | 0.213 | 0.0252 | 0.011
17 | ACTATGA | -0.0215 | 0.0617 | -0.124 | 0.11 | 0.0362 | -0.866 | 0.106 | -0.0114 | -0.0527
18 | ATATATG | 0.0753 | 0.145 | -0.483 | -0.383 | 0.0881 | -1.06 | 0.227 | 0.0459 | -0.0193
19 | AACCACT | 0.0578 | -0.00672 | -0.571 | -2.97 | 0.0627 | -0.701 | -2.18 | -0.0408 | -0.0553
20 | ATCTTGA | 0.0737 | 0.0233 | -0.258 | -0.263 | 0.0689 | -1.07 | 0.0475 | -0.0478 | 0.0653
21 | GGCAATT | 0.0637 | 0.0797 | 0.752 | 1.56 | 0.0644 | 2.08 | 0.13 | 0.25 | 0.104
22 | GGTGCTT | 0.0591 | -0.0249 | 0.717 | 1.58 | 0.0436 | 2.13 | 0.0176 | 0.0861 | 0.0913
23 | TTGCTTC | 0.0674 | -0.101 | -0.418 | -0.764 | -0.0815 | -1.12 | -0.0779 | -0.0318 | -0.158
24 | CCAATCT | -0.042 | -0.0567 | -0.438 | -1.59 | -0.0365 | -0.346 | -0.068 | 0.0392 | -0.105
25 | ACCGAAA | -0.108 | -0.0674 | -0.139 | -0.0534 | 0.0138 | -0.775 | 0.0978 | 0.000261 | -0.039
26 | AATCTCC | -0.0214 | -0.0116 | -0.196 | -0.152 | -0.078 | 1.64 | 0.0641 | -0.0319 | 0.0965
27 | GTGGATA | 0.0227 | 0.175 | 0.638 | 1.36 | -0.0446 | 2.08 | 0.197 | 0.0143 | -0.00964
28 | TACGGCT | 0.0233 | -0.108 | -0.754 | -1.8 | 0.0809 | -0.472 | -0.0397 | -0.0331 | -0.122
29 | GCGTGGG | 0.161 | 0.0133 | -0.256 | -0.275 | 0.238 | -0.517 | 0.199 | 0.0777 | -0.00227
30 | TGACATA | 0.0362 | 0.0907 | 0.687 | 1.54 | 0.029 | 1.96 | 0.107 | 0.0801 | 0.279
